Consider 24 molecules from the supplement of paper PMC11369174, “Proteome-scale characterisation of motif-based interactome rewiring by disease mutations” (Molecular Systems Biology, 2024).

The list shows a part of the results. The data scatter; read single values as rough.

The chains are these.
T1: CSK21_Pkinase__P68400_1_335
T1 chain: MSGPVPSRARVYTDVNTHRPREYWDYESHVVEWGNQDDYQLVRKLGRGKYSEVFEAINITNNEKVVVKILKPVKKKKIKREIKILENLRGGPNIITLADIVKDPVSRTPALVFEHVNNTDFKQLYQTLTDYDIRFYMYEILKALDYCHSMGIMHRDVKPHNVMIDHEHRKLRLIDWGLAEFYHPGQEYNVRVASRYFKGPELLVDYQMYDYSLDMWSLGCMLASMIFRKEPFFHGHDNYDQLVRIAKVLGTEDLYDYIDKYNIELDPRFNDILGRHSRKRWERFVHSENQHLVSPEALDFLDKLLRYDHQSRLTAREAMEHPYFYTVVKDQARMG

T2: CLTC_Clathrin-propeller__Q00610_1_364
T2 chain: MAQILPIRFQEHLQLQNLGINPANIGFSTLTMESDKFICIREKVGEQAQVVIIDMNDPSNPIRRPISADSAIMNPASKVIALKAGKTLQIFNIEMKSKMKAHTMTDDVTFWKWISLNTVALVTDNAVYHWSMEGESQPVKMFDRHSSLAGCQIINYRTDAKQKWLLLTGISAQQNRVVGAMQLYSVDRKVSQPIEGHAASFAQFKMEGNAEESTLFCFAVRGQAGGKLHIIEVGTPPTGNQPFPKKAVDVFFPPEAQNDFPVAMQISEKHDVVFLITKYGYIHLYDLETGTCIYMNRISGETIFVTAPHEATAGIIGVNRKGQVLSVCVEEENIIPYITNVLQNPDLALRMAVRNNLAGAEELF

T3: CSKP_Pkinase__O14936_1_340
T3 chain: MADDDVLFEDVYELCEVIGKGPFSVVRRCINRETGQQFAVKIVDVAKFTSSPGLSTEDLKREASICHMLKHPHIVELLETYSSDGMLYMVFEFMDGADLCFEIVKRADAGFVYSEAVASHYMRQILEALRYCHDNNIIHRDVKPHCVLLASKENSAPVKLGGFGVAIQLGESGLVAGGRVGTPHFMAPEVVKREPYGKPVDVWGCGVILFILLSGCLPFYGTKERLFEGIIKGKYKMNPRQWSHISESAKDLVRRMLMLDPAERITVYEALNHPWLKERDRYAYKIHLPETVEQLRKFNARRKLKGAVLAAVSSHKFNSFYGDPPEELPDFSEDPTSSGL

T4: G3BP2_NTF2_1_Q9UN86_1_139
T4 chain: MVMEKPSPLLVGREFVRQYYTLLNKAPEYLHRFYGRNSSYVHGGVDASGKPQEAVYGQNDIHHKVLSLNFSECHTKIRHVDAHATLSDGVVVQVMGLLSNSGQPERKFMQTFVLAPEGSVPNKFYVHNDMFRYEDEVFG

T5: EPHA3_Pkinase__P29320_606_947
T5 chain: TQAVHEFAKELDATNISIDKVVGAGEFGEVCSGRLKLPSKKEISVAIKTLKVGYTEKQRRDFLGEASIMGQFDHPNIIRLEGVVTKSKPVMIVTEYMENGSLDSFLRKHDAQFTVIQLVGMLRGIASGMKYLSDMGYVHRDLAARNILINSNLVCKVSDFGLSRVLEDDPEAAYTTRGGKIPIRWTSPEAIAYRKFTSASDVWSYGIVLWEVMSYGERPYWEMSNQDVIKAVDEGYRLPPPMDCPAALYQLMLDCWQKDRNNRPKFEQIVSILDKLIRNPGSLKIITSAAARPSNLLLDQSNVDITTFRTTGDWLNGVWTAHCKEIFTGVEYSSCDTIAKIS

T6: EPHB2_Pkinase__P29323_604_898
T6 chain: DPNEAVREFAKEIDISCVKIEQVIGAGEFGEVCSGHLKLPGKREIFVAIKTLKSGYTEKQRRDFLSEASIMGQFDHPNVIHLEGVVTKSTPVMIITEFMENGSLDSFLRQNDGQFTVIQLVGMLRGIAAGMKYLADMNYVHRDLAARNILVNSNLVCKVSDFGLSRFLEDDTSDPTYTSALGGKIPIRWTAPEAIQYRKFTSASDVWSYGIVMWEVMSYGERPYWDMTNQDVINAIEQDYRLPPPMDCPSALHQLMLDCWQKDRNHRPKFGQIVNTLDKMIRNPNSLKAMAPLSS

T7: ZMYND11_coiled-coil-MYND__Q15326_480_602
T7 chain: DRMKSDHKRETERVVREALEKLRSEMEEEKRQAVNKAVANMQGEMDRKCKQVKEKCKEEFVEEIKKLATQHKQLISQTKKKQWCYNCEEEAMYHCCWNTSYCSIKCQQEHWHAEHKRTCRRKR

Sequence of KPNA4_Arm__O00629_68_487 (chain, as listed by the source): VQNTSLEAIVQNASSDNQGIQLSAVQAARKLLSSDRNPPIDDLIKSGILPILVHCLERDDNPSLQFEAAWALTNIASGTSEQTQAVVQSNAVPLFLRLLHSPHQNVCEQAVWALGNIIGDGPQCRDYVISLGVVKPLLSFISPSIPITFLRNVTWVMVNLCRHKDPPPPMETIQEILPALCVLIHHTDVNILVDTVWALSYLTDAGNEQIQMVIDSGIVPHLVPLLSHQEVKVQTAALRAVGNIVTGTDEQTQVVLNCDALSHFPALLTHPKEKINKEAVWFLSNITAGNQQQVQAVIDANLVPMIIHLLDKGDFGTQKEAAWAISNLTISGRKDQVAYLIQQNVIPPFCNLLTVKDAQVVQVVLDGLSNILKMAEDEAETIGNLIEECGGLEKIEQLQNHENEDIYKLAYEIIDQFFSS

For the first assay, the target named is T1, CSK21_Pkinase__P68400_1_335. As to the kind of experiment: mutation enrichment score (mutant vs wild-type peptide binding to bait); baits are purified protein domains named by gene / domain / UniProt id / residues; peptides come from disordered regions of human proteins; higher = mutation enhances binding relative to wild type. The following applies: number of wild-type / mutant comparisons summed (bounds the score): 6; paper call: no_effect; wild-type window: ….
As to PGTFLLRFSESSKEGGVTFTLVEKDISGKTQIQSVEPYTKQ [W623L W623L], the mutation enrichment score is -3.

For GGEEAKLKKRKPRVKKENKVLRLKEEHGIELSSPRHSDNPS [P1353L P1353L], the mutation enrichment score turned out to be 2. On the same count and under the same terms, the same measure for SKQDSWNSLVLADSHGDIITV [A442V A442V]: 4; for QFETADDEDFIWVQENIDEIVLQLQKLTGQQGEEPSLVSPS [I3558V I3558V]: 1. The same measure, in the same setting: the same measure for QAELSQMQTQISETNVILSMVNNRSLDLDSIIAEVKAQYED [D340V D340V]: 3; for KPPGTFLLRFSESSKEGGVTLTWVEKDISGKTQIQSVEPYT [F621L F621L]: -3.

As for KPPGTFLLRFSESSKEGGVTVTWVEKDISGKTQIQSVEPYT [F621V F621V], the mutation enrichment score is -3. Still for that read-out and setting: in the case of PPGTFLLRFSESSKEGGVTFIWVEKDISGKTQIQSVEPYTK [T622I T622I] it was -3.

The next assay addresses T2, CLTC_Clathrin-propeller__Q00610_1_364. The assay is described as above. The note with it: number of wild-type / mutant comparisons summed (bounds the score): 12; paper call: enhanced; wild-type window: ….
Consider TNIETELRPSNNLNLLSFEDLTTGGVQQKQIREHEVLIHVE [S323L S323L], for which the mutation enrichment score was determined as 6.4. The same measure, in the same setting: the same measure for DDEPDHGPLGAPEGDHDLLTFGQCQMNFPLGDILIFIEHKR [C48F C48F]: 12.

Staying with this assay, now noted: number of wild-type / mutant comparisons summed (bounds the score): 12; paper call: no_effect; wild-type window: ….
DCTPSLKSLVATGNLLDLEEIAKAPLSTVSANTTNMDEVPR [T218I T218I]: the mutation enrichment score was -3.

The next assay addresses T3, CSKP_Pkinase__O14936_1_340. Described as above. The note with it: number of wild-type / mutant comparisons summed (bounds the score): 6; paper call: no_effect; wild-type window: ….
With SELQPPAPSEDIWKKFELLPAPPLSPSRRSGLCSPSYVAVT [T58A T58A], the mutation enrichment score is -4. On the same count and under the same terms, the same measure for SELQPPAPSEDIWKKFELLPIPPLSPSRRSGLCSPSYVAVT [T58I T58I]: -4; for SELQPPAPSEDIWKKFELLPSPPLSPSRRSGLCSPSYVAVT [T58S T58S]: 3.8.

For NHVVVFMLGTIPFPEGMGGSLYFSYPDSNGMPVWQLLGFVT [V54L V54L], the mutation enrichment score came out at 5.

For the molecule VVTIWAAGAGATHSPPTDLVRKAQNTWGCGNSLRTALINST [W514R W514R], the mutation enrichment score is -2. The same measure, in the same setting: the same measure for GATHSPPTDLVWKAQNTWGCRNSLRTALINSTGEEVAMRKL [G523R G523R]: 2.2; for AGAGATHSPPTDLVWKAQNTRGCGNSLRTALINSTGEEVAM [W520R W520R]: 0.22. For AGAGATHSPPTDLVWKAQNTSGCGNSLRTALINSTGEEVAM [W520S W520S], the mutation enrichment score is -2.

Staying with this assay, now noted: number of wild-type / mutant comparisons summed (bounds the score): 6; paper call: enhanced; wild-type window: ….
On to HVVVFMLGTIPFPEGMGGSVCFSYPDSNGMPVWQLLGFVTN [Y55C Y55C], for which the mutation enrichment score is 6.

For the molecule MSDSWVPNSASGQDPGGRRRLWAE [S4L S4L], the mutation enrichment score is 6. On the same count and under the same terms, in the case of ADGAALEHSEEDGSIYEMADYPDIWVRSRPCARDAHRKEIC [D1216Y D1216Y] it was 6.

A further assay addresses T4, G3BP2_NTF2_1_Q9UN86_1_139. Described as above. The note with it: number of wild-type / mutant comparisons summed (bounds the score): 6; paper call: no_effect; wild-type window: ….
Consider HVVVFMLGTIPFPEGMGGSVCFSYPDSNGMPVWQLLGFVTN [Y55C Y55C], for which the mutation enrichment score was -3. On the same count and under the same terms, the same measure for NHVVVFMLGTIPFPEGMGGSLYFSYPDSNGMPVWQLLGFVT [V54L V54L]: -1.3.

A further assay concerns the target KPNA4_Arm__O00629_68_487. Described as above. The note with it: number of wild-type / mutant comparisons summed (bounds the score): 9; paper call: no_effect; wild-type window: ….
For the molecule GGEEAKLKKRKPRVKKENKVLRLKEEHGIELSSPRHSDNPS [P1353L P1353L], the mutation enrichment score is 0.18.

A further assay deals with T5, EPHA3_Pkinase__P29320_606_947. The assay is described as above. The note with it: number of wild-type / mutant comparisons summed (bounds the score): 6; paper call: no_effect; wild-type window: ….
As to SKQDSWNSLVLADSHGDIITV [A442V A442V], the mutation enrichment score is 4.

Another assay deals with T6, EPHB2_Pkinase__P29323_604_898. The description is as above. The following applies: number of wild-type / mutant comparisons summed (bounds the score): 6; paper call: no_effect; wild-type window: ….
Take SKQDSWNSLVLADSHGDIITV [A442V A442V]: the mutation enrichment score was found to be 3.

A further assay concerns the target T4, G3BP2_NTF2_1_Q9UN86_1_139. Described as above. The following applies: number of wild-type / mutant comparisons summed (bounds the score): 12; paper call: enhanced; wild-type window: ….
Consider DDEPDHGPLGAPEGDHDLLTFGQCQMNFPLGDILIFIEHKR [C48F C48F], for which the mutation enrichment score was found to be 10.

The next assay concerns the target CREBBP_NCBD__Q92793_2062_2109. The description is as above. The note with it: number of wild-type / mutant comparisons summed (bounds the score): 5; paper call: no_effect; wild-type window: ….
RGGPEREEKLTDWQKLACLLFRRQFPSKEALIRHQQLSGLH [C764F C764F]: the mutation enrichment score was 2.

Another assay deals with GABARAPL1_ATG8__Q9H0R8_2_115. The description is as above. The note with it: number of wild-type / mutant comparisons summed (bounds the score): 12; paper call: no_effect; wild-type window: ….
Take QFETADDEDFIWVQENIDEIVLQLQKLTGQQGEEPSLVSPS [I3558V I3558V]: the mutation enrichment score came out at 0.

The target in the next assay is T2, CLTC_Clathrin-propeller__Q00610_1_364. Described as above. The following applies: number of wild-type / mutant comparisons summed (bounds the score): 18; paper call: diminished; wild-type window: ….
For MDPALQMANTLPVSGNLIDLCGNQGLPPPGLTISNSCPANL [Y265C Y265C], the mutation enrichment score was -9.8.

In another assay the target is T7, ZMYND11_coiled-coil-MYND__Q15326_480_602. The description is as above. The note with it: number of wild-type / mutant comparisons summed (bounds the score): 6; paper call: no_effect; wild-type window: ….
Take MDPALQMANTLPVSGNLIDLCGNQGLPPPGLTISNSCPANL [Y265C Y265C]: the mutation enrichment score is -0.68.
